In patent US20240247069A1, “FGFR3 BINDING MOLECULES AND METHODS OF USE THEREOF” (Regeneron Pharmaceuticals, Inc., priority 2023, published 2024):

What was measured:
moFGFR3b (mmh) = target: T1, moFGFR3b (mmh) (Mus musculus, UniProt Q61851); experiment: Biacore binding to mouse FGFR3b
T1 construct: biotinylated human or mouse FGFR3b-ecto.mmH, human FGFR3c-ecto.mmH; mmh (own knowledge: myc-myc-hexahistidine) (C)
T1 sequence (Q61851 21-371 isoform Q61851-2): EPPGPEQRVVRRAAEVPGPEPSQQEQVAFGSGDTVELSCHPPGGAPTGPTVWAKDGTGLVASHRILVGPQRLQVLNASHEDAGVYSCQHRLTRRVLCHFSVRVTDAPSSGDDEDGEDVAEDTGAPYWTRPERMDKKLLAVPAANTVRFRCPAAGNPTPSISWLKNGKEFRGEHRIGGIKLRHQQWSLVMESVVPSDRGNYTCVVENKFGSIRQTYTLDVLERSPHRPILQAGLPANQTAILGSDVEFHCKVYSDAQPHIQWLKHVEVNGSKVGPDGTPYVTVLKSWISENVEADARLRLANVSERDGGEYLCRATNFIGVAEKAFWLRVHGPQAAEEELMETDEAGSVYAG
Description: Affinity and mechanism of action of binding of anti-FGFR3 antibodies to FGFR3 isoforms were determined by Biacore analysis. In brief, in-house generated monoclonal anti-human Fc antibody was immobilized on the surface of a CM-5 sensor chip. Different concentrations of FGFR3 antibodies were injected at 50 μL/min for 4 min and the assay was performed at 25° C. The mAb binding response was monitored and, for low affinity receptors, steady-state binding equilibrium was calculated. Kinetic association (ka) and dissociation (kd) rate constants were determined by processing and fitting the data to a 1:1 binding model using Scrubber 2.0 curve fitting software. Binding dissociation equilibrium constants (KD) and dissociative half-lives (t1/2) were calculated from the kinetic rate constants using the formula: KD (M)=kd/ka; and t1/2 (min)=(ln2/(60*kd). Some KD values were derived using the steady state equilibrium dissociation constant; When no KD values could be derived, it was marked as NB (no binding observed) or IC (inconclusive affinity determination due to low specific RU signal).

[1] = test system: MAPK phosphorylation in BaF3 cells expressing Y375C hFGFR3b; experiment: Western blot of FGF1/heparin induced MAPK phosphorylation in BaF3 Y375C hFGFR3b cells; format: cell-based; conditions: 100 nM antibody overnight; 100 nM FGF1 + 10 μg/ml heparin 15 min
Description: (§1) To evaluate receptor phosphorylation and downstream signaling, cells were serum starved overnight in the presence or absence of indicated antibodies followed by ligand (100 ng/ml human FGF1 and 10 μg/ml heparin) stimulation for 15 min at 37° C. Equal amounts of cell lysates were analyzed by SDS-PAGE. Blots were incubated with pMAPK, MAPK or actin antibodies followed by incubation with HRP secondary antibody. For FGFR3 phosphorylation, equal amounts of cell lysates were incubated with pY100 Sepharose beads overnight and non-specific binding was removed by washes with lysis buffer. Immunoprecipitated proteins were analyzed by reducing or non-reducing SDS-PAGE and blotted with FGFR3 antibody.

[2] = test system: MAPK phosphorylation in BaF3 cells expressing WT hFGFR3b; experiment: Western blot of FGF1/heparin induced MAPK phosphorylation in BaF3 WT hFGFR3b cells; format: cell-based; conditions: 100 nM antibody overnight; 100 nM FGF1 + 10 μg/ml heparin 15 min
Description: as §1

B1: mAb063: parental anti-FGFR3 antibody; anchor or additional arm; parent of BiP063N2 (antibody)
heavy: QVQLQESGPGLVKPSETLSLTCTVSGDSINSYFWSWIRQLPGKELEWIGHIYSSGSTRYNPSLQSRVTISIDTSKNQFSLKLSSVTAADTAVYYCARGASAVDYWGQGTLVTVSSASTKGPSVFPLAPCSRSTSESTAALGCLVKDYFPEPVTVSWNSGALTSGVHTFPAVLQSSGLYSLSSVVTVPSSSLGTKTYTCNVDHKPSNTKVDKRV[human IgG4 Fc with S228P (EU numbers) cut from this listing]
light: EIVLTQSPGTLSLSPGERATLSCRTSQSISSGYLAWYQQKPGQAPRLLIYGASRRATGIPDRFSGSGSGTDFTLTISRLEPEDFVVYYCQQYGSSPYTFGQGTKLEIKRTVAAPSVFIFPPSDEQLKSGTASVVCLLNNFYPREAKVQWKVDNALQSGNSQESVTEQDSKDSTYSLSSTLTLSKADYEKHKVYACEVTHQGLSSPVTKSFNRGEC
binding to monomeric mouse FGFR3b (in words) (moFGFR3b (mmh)): shown to bind
pMAPK after FGF1/heparin stimulation, Y375C hFGFR3b [1]: small increase in pMAPK levels
pMAPK after FGF1/heparin stimulation, WT hFGFR3b [2]: no increases in pMAPK
